From PubChem BioAssay AID1347165 (National Center for Advancing Translational Sciences (NCATS), 2019)
The whole screen tested about 220,000 compounds, of which about 5,700 (2.6%) were called active. Inconclusive means that the source gave no clear call. Such entries were picked first, then a sample of the others. The call rests on the fitted dose curve; in most records, active means well fitted inhibition curve with a large enough effect; inconclusive means small, poorly fitted or top-dose-only effect; inactive means no such curve, though single readings can be large or run the other way. Where the call is inconclusive, the potency comes from a doubtful curve fit.

target: Lysine-specific demethylase 5B (Homo sapiens) (UniProt Q9UGL1); experiment: Primary screen for KDM5B Histone Demethylases FDH-coupled qHTS; conditions: FDH-coupled NADH fluorescence (FDH is formaldehyde dehydrogenase); activity change, negative = inhibition: at 57.7 µM (top of the series) unless noted; further: nearly all actives have a fitted effect of over 70% in size; on activity change, negative = inhibition: 0% is about no effect
Summary of the method: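 Compound dilutions met 200 nM (final) KDM5BΔAP for 10 min at room temperature before substrate addition. The substrate mix held 12.5 µM H3K4me3 with cofactors 25 µM α-ketoglutarate and 50 µM Fe²⁺. NADH signal gain over 30 min defined activity.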
Potency means the concentration at half of the fitted maximal effect; tags describe the fitted curve by direction and shape.

UniProt Q9UGL1, sequence (Q9UGL1 whole entry, looked up): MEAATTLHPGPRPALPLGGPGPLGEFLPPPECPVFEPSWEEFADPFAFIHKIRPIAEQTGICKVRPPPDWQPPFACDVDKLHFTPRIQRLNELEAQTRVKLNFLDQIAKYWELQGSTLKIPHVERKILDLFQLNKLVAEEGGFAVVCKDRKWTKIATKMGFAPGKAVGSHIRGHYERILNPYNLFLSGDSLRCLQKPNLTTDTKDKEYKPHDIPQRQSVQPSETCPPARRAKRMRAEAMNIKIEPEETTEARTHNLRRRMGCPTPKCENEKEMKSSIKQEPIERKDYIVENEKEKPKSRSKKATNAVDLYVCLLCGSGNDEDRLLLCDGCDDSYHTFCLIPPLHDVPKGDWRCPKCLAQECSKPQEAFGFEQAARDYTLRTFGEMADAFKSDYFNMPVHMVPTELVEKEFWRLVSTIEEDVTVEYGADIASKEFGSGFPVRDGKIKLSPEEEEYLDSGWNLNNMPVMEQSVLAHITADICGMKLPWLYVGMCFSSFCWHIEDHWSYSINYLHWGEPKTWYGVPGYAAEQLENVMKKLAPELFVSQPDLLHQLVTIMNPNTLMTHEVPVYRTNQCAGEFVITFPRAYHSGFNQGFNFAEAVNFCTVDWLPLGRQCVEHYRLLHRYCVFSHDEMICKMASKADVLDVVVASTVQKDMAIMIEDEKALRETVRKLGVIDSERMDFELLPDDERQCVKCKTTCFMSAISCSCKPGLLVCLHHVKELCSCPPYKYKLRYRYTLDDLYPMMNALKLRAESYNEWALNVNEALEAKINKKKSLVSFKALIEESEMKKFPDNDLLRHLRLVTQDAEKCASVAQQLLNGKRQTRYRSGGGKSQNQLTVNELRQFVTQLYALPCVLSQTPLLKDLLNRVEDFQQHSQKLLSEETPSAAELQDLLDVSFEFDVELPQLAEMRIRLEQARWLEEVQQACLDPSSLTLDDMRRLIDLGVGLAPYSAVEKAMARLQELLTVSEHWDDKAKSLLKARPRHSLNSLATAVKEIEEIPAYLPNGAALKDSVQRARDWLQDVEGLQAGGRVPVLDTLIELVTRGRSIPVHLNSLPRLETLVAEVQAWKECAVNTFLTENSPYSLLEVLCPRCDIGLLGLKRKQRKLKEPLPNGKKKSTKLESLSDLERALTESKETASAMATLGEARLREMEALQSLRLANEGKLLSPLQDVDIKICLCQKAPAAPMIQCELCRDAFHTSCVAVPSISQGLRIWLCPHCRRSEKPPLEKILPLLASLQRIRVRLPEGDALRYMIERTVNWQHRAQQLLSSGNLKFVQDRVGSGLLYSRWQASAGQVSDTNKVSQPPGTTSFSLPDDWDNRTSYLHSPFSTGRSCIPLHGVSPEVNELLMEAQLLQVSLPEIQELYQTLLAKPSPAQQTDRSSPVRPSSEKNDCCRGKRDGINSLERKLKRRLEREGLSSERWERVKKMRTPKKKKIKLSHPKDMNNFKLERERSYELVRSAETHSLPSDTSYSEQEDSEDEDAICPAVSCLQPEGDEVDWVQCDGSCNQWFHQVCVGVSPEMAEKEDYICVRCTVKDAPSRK

SMILES	activity change, negative = inhibition	Potency
Cc1cc(C(=O)COc2ccc3ccc(=O)oc3c2)c(C)n1C1CC1	inactive: 169%	
N#C/C(=C/c1cccc2c1OCCCO2)c1nc(-c2ccccn2)cs1	inactive: -17.6%	
CC/C=C(/C)C(=O)NCc1ccco1	inactive: 9.53%	
CCN1C(=O)CCN(Cc2cccc(OC(F)(F)F)c2)CC12CCOCC2	inactive: 4.32%	
CCC(=O)N1CCc2c(sc3ncnc(NCc4ccccc4)c23)C1		active: 31.6 µM
CCOc1cccc(C(c2c[nH]c3ccccc23)c2c[nH]c3ccccc23)c1O		inconclusive: 22.4 µM [inhibitor, single point]
COc1ccc(NC(=O)C2CCCN(c3nnc(C)c4c(C)n(-c5ccccc5)nc34)C2)cc1Cl (stereo not drawn)		inconclusive: 35.5 µM [inhibitor, partial curve, poor fit]
O=C(/C=C/c1ccccc1)c1cc2ccccc2o1		inconclusive: 28.2 µM [inhibitor, partial curve, poor fit]
CC(CN1CCN(C)CC1)OC(=O)c1cccc(Cl)c1 (stereo not drawn)		inconclusive: 25.1 µM [inhibitor, single point]
CCOc1ccccc1C(=O)NC1CCN(c2cc(-c3ccc(F)cc3)[nH]n2)C1 (stereo not drawn)		inconclusive: 10 µM [inhibitor, partial curve]
CCCN(C)c1ccc(/C=N/NC(=S)Nc2ccc(CC)cc2)cc1		inconclusive: 4.47 µM [inhibitor, full curve, poor fit]
COc1cccc(-c2cc(-c3cn[nH]c3)c3cncn3c2)c1		active: 39.8 µM
O=C(c1cccs1)N1CCCn2cc(-c3ccc4c(c3)OCO4)nc21		inconclusive: 15.8 µM [inhibitor, partial curve]
N#Cc1cccc(-c2n[nH]c3c2CC(=O)N(Cc2ccccn2)C3)c1		active: 35.5 µM
Cc1nc(COc2ccc(C(=O)N3CCN(C4CCS(=O)(=O)C4)CC3)cc2)cs1 (stereo not drawn)	inactive: 21.2%	
Cc1ccc(C(=O)c2sc(Nc3cc(Cl)ccc3C)nc2N)cc1	inactive: -8.26%	
Nc1ccc2[nH]ncc2c1		inconclusive: 31.6 µM [inhibitor, partial curve, poor fit]
COCC1CN(Cc2ccc(OC)c(OC)c2Cl)CC12CCNCC2 (stereo not drawn)		inconclusive: 4.47 µM [inhibitor, single point]
Cc1ccccc1C1NC(=O)c2c(sc3c2CCN(Cc2ccccc2)C3)N1 (stereo not drawn)		inconclusive: 39.8 µM [inhibitor, partial curve, poor fit]
COc1cccc(CNC(=O)C(C)n2c(=O)cc(-c3ccccc3)c3c(C)nn(C)c32)c1 (stereo not drawn)		inconclusive: 31.6 µM [inhibitor, partial curve, poor fit]
CCc1cccc(NS(=O)(=O)c2cc(/C=C\c3onc(C)c3NC(C)=O)ccc2C)c1		inconclusive: 20 µM [inhibitor, partial curve, poor fit]
COc1ccc(CNC(=O)c2noc(-c3ccc(C)cc3)n2)cc1	inactive: -2.97%	
CCCn1cnc2c1CN(S(C)(=O)=O)[C@H](C(=O)OC)C2		inconclusive: 44.7 µM [inhibitor, partial curve, poor fit]

SMILES	activity change, negative = inhibition	Potency
COc1ccc(NC(=O)N2CCN(S(=O)(=O)c3ccc4c(ccn4C)c3)CC2)c(OC)c1		inconclusive: 4.47 µM [inhibitor, full curve, poor fit]
CC(C)CN1CCN(C(=O)CCC[C@@H]2[C@H]3CCCN4CCC[C@@H](CN2Cc2cccnc2)[C@@H]34)CC1		inconclusive: 22.4 µM [inhibitor, single point]
CSc1nc(SCC(=O)O)c2sc3nc(-c4ccccc4)c4c(c3c2n1)CCC4		inconclusive: 22.4 µM [inhibitor, partial curve, poor fit]
CCOc1ncccc1CNC(=O)c1nccnc1N		inconclusive: 28.2 µM [inhibitor, partial curve, poor fit]
Cc1cc(C)cc(NC(=S)NCCO)c1	inactive: -4.63%	
COc1ccc(NC(=O)c2cc3c(N4CCSCC4)nc(C)cn3n2)cc1OC		active: 28.2 µM
O=C(Nc1ccc(N2CCOCC2)cc1)C1CN(S(=O)(=O)C2CC2)CC12CCCCC2 (stereo not drawn)		inconclusive: 14.1 µM [inhibitor, partial curve, poor fit]
CN(C)C(=O)c1nc(-c2ccc(Cl)cc2Cl)c2ccccn12		active: 89.1 µM
COc1ccc(C(=O)OCc2nc(-c3ccc(F)cc3)no2)cc1S(=O)(=O)N1CCCC1	inactive: 2.15%	
O=C(NC1CC1)c1cc2occc2n1Cc1ccccc1Cl	inactive: 5.78%	
COc1ccccc1NC(=O)/C(C#N)=C/c1coc2ccc(Cl)cc2c1=O	inactive: -13.8%	
COc1ccc(-c2noc([C@@H]3CCCN3C(=O)c3cc4ccccc4[nH]3)n2)cc1OC		inconclusive: 28.2 µM [inhibitor, partial curve, poor fit]
CCOc1cccc(C(=O)Nc2ccc3oc(=O)ccc3c2)c1		inconclusive: 39.8 µM [inhibitor, single point]
COc1ccc(OC2CN(C(=O)c3ccc4c(c3)OCO4)C2)cc1	inactive: 18.3% [at 149 µM]	
COC[C@@H]1CN(Cc2cccc(OC)c2OC)C[C@H]1c1ccccn1		inconclusive: 25.1 µM [inhibitor, partial curve]
COc1ccc(Nc2cnc3ccc(-c4ccccc4OC)nn23)cc1	inactive: -21.8% [at 86.2 µM]	
COc1ccc(C2Nc3ccccc3C(=O)N2c2ccccc2)cc1CN1CCOCC1 (stereo not drawn)		inconclusive: 20 µM [inhibitor, partial curve, poor fit]
O=C(NCc1cccs1)c1ccc2c(c1)OCCCO2	inactive: 0.143%	
Cc1nc2c(C(=O)NC(C)c3ccccc3)cnn2c(C)c1Cc1ccccc1 (stereo not drawn)		inconclusive: 35.5 µM [inhibitor, partial curve, poor fit]
CN(Cc1ccc(F)cc1)c1ccc2ncc(Nc3ccc4c(c3)OCO4)n2n1		inconclusive: 35.5 µM [inhibitor, single point]
CCNc1cc(N2CCC(CCC(=O)N3CCCN(c4ncccn4)CC3)CC2)ncn1		inconclusive: 17.8 µM [inhibitor, single point]
O=C(O)c1ccnc(-c2ccnc(NCCN3CCCCC3CO)n2)c1 (stereo not drawn)		inconclusive: 14.1 µM [inhibitor, partial curve, poor fit]
NC1CCCCN(Cc2cnc(-c3ccco3)nc2)C1 (stereo not drawn)		inconclusive: 12.6 µM [inhibitor, partial curve]

SMILES	activity change, negative = inhibition	Potency
Cc1ccc(-c2nnc(Nc3ccccc3)c3ccccc23)cc1S(=O)(=O)NC(C)(C)CO		inconclusive: 39.8 µM [inhibitor, single point]
Cc1cccc(-c2nc(Cn3c(SCc4cccc(C(F)(F)F)c4)nc4ccncc43)c(C)o2)c1		inconclusive: 35.5 µM [inhibitor, single point]
COc1ccc(CN[C@@H]2C=C[C@@H](c3c(C)nn(-c4ccccc4)c3C)C2)cc1		inconclusive: 35.5 µM [inhibitor, partial curve]
COc1ccc(C(C)=O)cc1CO/N=C/c1ccccc1Cl	inactive: 12.2%	
Cc1nc2cc(-c3ccccc3)nn2c(C)c1CCC(=O)N1CCN(c2ccccc2)CC1	inconclusive: -37.7% [inhibitor]	
CN(c1cc(=O)c2ccnc(-c3cccc(C(F)(F)F)c3)c2o1)C1CCOCC1		active: 28.2 µM
O=C1Nc2ccccc2C12CCN(c1cc(C3CC(O)C3)ncn1)CC2 (stereo not drawn)	inactive: 4.13%	
COc1ccc2oc(-c3ccc(C)c(NC(=O)Cc4ccc(Cl)cc4)c3)nc2c1		inconclusive: 31.6 µM [inhibitor, single point]
C[C@@H](NC(=O)C1CCCCC1)c1c(-c2ccc(F)cc2)noc1C(=O)O		inconclusive: 28.2 µM [inhibitor, partial curve, poor fit]
Cc1ccc(S(=O)(=O)N(Cc2cccnc2)C2CC2)cc1F	inactive: 14.1%	
COc1cccc(C(=O)N2CCc3nc(C)nc(-c4ccc(Cl)cc4)c3CC2)c1	inactive: -24.2%	
COc1ccccc1OCCNC(=O)[C@@H]1COCC(=O)N1Cc1ccc(F)cc1	inactive: 11.4%	
CCc1ccc(C(=O)Nc2ccc3nn(-c4ccc(C)c(Cl)c4)nc3c2)cc1		inconclusive: 1 µM [inhibitor, partial curve, poor fit]
COc1ccc(-c2cn3c(n2)sc2cc(C(=O)Nc4cc(Cl)ccc4C)ccc23)cc1		inconclusive: 22.4 µM [inhibitor, single point]
Cc1cc(N2C(=O)C(O)=C(C(=O)c3cc4ccccc4o3)C2c2ccc(OC(C)C)cc2)no1 (stereo not drawn)		inconclusive: 28.2 µM [inhibitor, partial curve, poor fit]
c1cn(C2CCSC2)c(-c2cc3n(n2)CCNC3)n1 (stereo not drawn)		inconclusive: 14.1 µM [inhibitor, partial curve]
O=C(N/N=C/c1cccs1)c1cc(-c2cccs2)nc2ccccc12		inconclusive: 28.2 µM [inhibitor, partial curve, poor fit]
CN(C)c1ncc2c(n1)C(C)(C(=O)NCc1cccc(F)c1)CCC2 (stereo not drawn)		inconclusive: 35.5 µM [inhibitor, partial curve, poor fit]
COc1ccc(CCNCC(=O)Nc2ccc(C)c(S(=O)(=O)N(C)C)c2)cc1OC		inconclusive: 12.6 µM [inhibitor, partial curve, poor fit]
Cc1ccc(C(=O)N[C@@H]2CN(c3ncccn3)C[C@H]2CO)cn1		inconclusive: 22.4 µM [inhibitor, single point]
O=C(CCc1ccccc1)N1CCNc2cnc(Nc3cccnc3)nc2C1		inconclusive: 39.8 µM [inhibitor, partial curve, poor fit]
O=c1oc2ccccc2cc1-c1nc(-c2ccccc2)cs1		inconclusive: 1.78 µM [inhibitor, partial curve, poor fit]
